# Laboratory results taken from article PMC4336329 (PLoS ONE, 2015).
# Out of some 310,000 compounds screened, about 14,000 (4.5%) showed an effect of 50% or more. Effects have a minus sign here. This is one part of the list.
# Target: human ether-à-go-go-related gene (hERG) potassium channel (human, UniProt Q12809)
# Assay: primary screen, population patch clamp on CHO cells stably expressing hERG
# Experimental: Briefly, Chinese hamster ovary (CHO) cells stably expressing the hERG channel were dislodged from tissue culture flasks and dispensed into PPC plates. […] During the recording, background leak currents were estimated by a 100 ms step to -80 mV from an initial holding potential of -70 mV and subtracted from the subsequent current measurement. The campaign was conducted in two phases using slight differences in recording protocol. In the first phase, the initial voltage pulse used a 100 ms step to -30 mV from a holding potential of -70 mV, a 2 s conditioning step to +25 mV, and a 2 s test step to -30 mV. During the second phase of the screen, the potential during the conditioning step was raised to +45 mV. In both phases of the campaign, a secondary voltage pulse was applied using the same parameters as the second phase initial pulse. The initial and secondary pulses were applied in the absence of compound, and upon application of 1 μM and 10 μM test concentrations. […]
# 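Also: peak tail current of the secondary pulse compared with the same well before compound.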
# Chain of human ether-à-go-go-related gene (hERG) potassium channel (Q12809 whole entry, looked up): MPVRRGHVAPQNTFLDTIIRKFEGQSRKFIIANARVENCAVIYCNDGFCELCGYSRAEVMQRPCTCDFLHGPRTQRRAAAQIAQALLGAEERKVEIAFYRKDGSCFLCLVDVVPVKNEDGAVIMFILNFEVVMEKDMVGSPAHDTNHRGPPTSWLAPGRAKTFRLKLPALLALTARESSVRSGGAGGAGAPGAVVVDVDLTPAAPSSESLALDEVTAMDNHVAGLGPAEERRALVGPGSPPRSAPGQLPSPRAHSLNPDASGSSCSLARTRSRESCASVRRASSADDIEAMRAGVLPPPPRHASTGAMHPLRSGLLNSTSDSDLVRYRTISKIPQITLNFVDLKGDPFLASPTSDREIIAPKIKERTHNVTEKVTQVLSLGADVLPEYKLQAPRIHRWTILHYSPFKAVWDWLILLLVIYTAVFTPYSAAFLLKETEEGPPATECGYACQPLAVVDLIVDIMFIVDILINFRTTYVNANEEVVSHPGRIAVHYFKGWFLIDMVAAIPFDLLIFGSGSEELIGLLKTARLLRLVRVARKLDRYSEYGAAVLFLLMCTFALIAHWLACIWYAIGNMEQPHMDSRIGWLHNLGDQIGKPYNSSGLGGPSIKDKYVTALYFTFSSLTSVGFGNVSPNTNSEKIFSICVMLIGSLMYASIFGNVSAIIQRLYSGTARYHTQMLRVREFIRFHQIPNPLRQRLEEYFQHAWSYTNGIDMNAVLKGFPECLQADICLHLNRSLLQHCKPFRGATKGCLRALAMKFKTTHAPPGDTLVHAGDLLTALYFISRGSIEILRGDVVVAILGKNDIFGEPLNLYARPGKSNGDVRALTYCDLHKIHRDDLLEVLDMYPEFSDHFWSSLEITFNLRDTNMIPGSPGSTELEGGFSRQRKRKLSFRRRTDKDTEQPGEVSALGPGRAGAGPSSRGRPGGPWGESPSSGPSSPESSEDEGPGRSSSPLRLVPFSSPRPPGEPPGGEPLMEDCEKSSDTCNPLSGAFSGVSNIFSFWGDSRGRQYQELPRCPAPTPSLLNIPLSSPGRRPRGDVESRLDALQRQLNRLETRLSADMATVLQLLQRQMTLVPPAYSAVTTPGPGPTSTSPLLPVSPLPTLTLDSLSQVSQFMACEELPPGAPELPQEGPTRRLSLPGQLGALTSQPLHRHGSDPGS
row,Compound,"hERG current change (%, negative = inhibition) at 10uM"
1,CN(CC(=O)Nc1ccc(Cl)c(C(F)(F)F)c1)C(=O)c1cccc2cccnc12,-28.8%
2,Cc1nc(COc2cc3oc(=O)cc(C)c3cc2Cl)cs1,23.9%
3,COc1ccc(C/C(C)=N/NC(=S)Nc2ccccc2F)cc1,15.6%
4,COc1cccc(CN2CCN(C(=O)COc3ccc4ccccc4c3)CC2)c1,-38.7%
5,COC(=O)C1CN(C(=O)C(C)Oc2ccccc2Cl)c2ccccc2O1 (stereo not drawn),-5.05%
6,CCOc1ccccc1NC(=O)CN(C)S(=O)(=O)c1ccc(OC)c(C)c1,-17.1%
7,COC(=O)C1=C(c2cccc(C#N)c2)C[C@@H]2CC[C@H]1N2C(=O)NC1Cc2ccccc2C1,-27.8%
8,N#Cc1ccccc1S(=O)(=O)N1CCN(c2ccc(S(=O)(=O)N3CCOCC3)cn2)CC1,-5.93%
9,O=C(O)CSc1cccnc1Sc1ccc(Cl)cc1,-3.14%
10,Cn1c(S(=O)(=O)Cc2ccc(Cl)cc2)nc2ccccc21,-10.5%
11,Cc1cc(NC(=O)c2ccc(NC(=O)C(C)C)cc2)no1,-3.1%
12,CN(C(=O)c1ccco1)c1nnc(-c2ccc(F)cc2)s1,4%
13,Cc1cc(O)c(NC(=O)c2ccc(Br)o2)cc1C,-7.04%
14,COc1ccc(C(=O)NNC(=O)CSc2nnc(-c3cccnc3)n2C)cc1,6.7%
15,Cc1[nH]n(-c2ccccc2)c(=O)c1C(c1cccc([N+](=O)[O-])c1O)c1c(C)[nH]n(-c2ccccc2)c1=O,-8.12%
16,O=C(c1ccc(Cl)cc1)N1C2C=CC(C2)C1(C(F)(F)F)C(F)(F)F (stereo not drawn),2.47%
17,CN(C)C=C1C(=O)N(C2CCCCC2)C(=O)N(C2CCCCC2)C1=O,-4.34%
18,Cn1cccc1C(=O)NNC(=O)COc1ccc(C#N)cc1,-4.5%
19,Cc1cccc2sc(N(CCCN(C)C)C(=O)CCc3ccccc3)nc12.Cl,-54.1%
20,CC1(C)CSC(=NCCc2ccccc2)N1,23.2%
21,COc1ccccc1CNS(=O)(=O)c1cc2c3c(c1)CCC(=O)N3CCC2,-17%
22,COc1ccc(C(=O)NCCC2=CCCCC2)cc1OC,-3.21%
23,O=C(Nc1n[nH]c(C2CCCCC2)n1)C1CCCCC1,-5.38%

row,Compound,"hERG current change (%, negative = inhibition) at 10uM"
1,CC(C)(C)NC(=O)C1CCN(C(=O)c2ccco2)CC1,11.1%
2,Cc1ccc(C)c(OCc2cc(C(=O)N3CCOCC3)no2)c1,-3.82%
3,Cc1cc(C)n2nc(SCc3ccc(F)cc3Cl)nc2n1,-4.5%
4,O=C(CC1C(=O)NCCN1Cc1ccc(-c2ccccc2)cc1)NCCc1ccccn1 (stereo not drawn),-12.6%
5,Cn1c(Cc2ccc3c(c2)OCO3)nnc1SCC(=O)NC(C)(C)C,22.7%
6,COc1ccc(CNC(=S)N/N=C/c2ccc(O)c(OC)c2)cc1,-5.52%
7,CC(=O)Nc1ccc(N(C(=O)c2ccco2)C(C(=O)NC2CCCC2)c2cccs2)cc1 (stereo not drawn),6.35%
8,Cc1cccc(C)c1Nc1nnc(SCc2nc3ccccc3s2)s1,-15.9%
9,Cc1ccc(C(=O)NCCc2nnc3ccc(NCCCN4CCOCC4)nn23)cc1,14.4%
10,CCc1cc(OCCN(C)C)ccc1Cl.O=C(O)C(=O)O,17.7%
11,O=C(NCc1ccccn1)C(=O)NCc1ccccn1,19.8%
12,COc1ccccc1CNC(=O)C1CC(c2ccc([N+](=O)[O-])cc2)=NO1 (stereo not drawn),-12.3%
13,COC(=O)c1[nH]c2cc(C)ccc2c1NC(=O)CN1CCN(c2ccccc2OC)CC1,-24.1%
14,Cc1ccn2cc(CCNS(=O)(=O)c3ccc4c(c3)OCCO4)nc2c1,-0.964%
15,O=C(NCCc1nc2ccccc2[nH]1)c1ccc(Cl)c([N+](=O)[O-])c1,-56.2%
16,CCN1CCCC1CNC(=O)C(=O)Nc1ccc(OC)cc1 (stereo not drawn),-5.95%
17,CCCCn1c(SCC(=O)NC(=O)Cc2ccccc2)nc2ccccc2c1=O,8.67%
18,CC(C)C(=O)N1CCC(Cc2ccccc2)CC1,4.6%
19,COc1ccc(-c2nc3n(n2)C(c2ccccc2)C2=C(CCCC2=O)N3)cc1OC (stereo not drawn),-11.3%
20,CCOC(=O)/C(C#N)=C\c1cccnc1,20.2%
21,COc1cc(/C=N/NC(=O)Cc2nnc(NC(=O)c3ccccc3)s2)ccc1O,8.17%
22,COC(=O)c1ccc(C(=O)OC)c(NC(=O)/C=C/C(=O)O)c1,5.06%
23,O=[N+]([O-])c1cccc(/C=N/Nc2cc(Cl)nc(-c3ccccc3)n2)c1,4.14%

row,Compound,"hERG current change (%, negative = inhibition) at 10uM"
1,Cc1nnc(SCC(=O)Nc2ccccc2)n(N)c1=O,2.08%
2,CCC(C)NC(=O)c1cc(Cl)c(NC(=O)C2=C(C)OCCS2)cc1OC (stereo not drawn),-27.7%
3,COc1cccc(N2CC(C(=O)Nc3ccc(C(=O)OC(C)C)cc3)CC2=O)c1 (stereo not drawn),9.03%
4,CCOc1ccc2[nH]c(=O)c(CN(CC3CCCN3CC)C(=O)NCc3ccccc3)cc2c1 (stereo not drawn),-63.2%
5,O=C1CCCc2ccccc2N1,22.3%
6,Cc1cc(Nc2ccccc2)nc(N2CCN(C(=O)c3ccc4c(c3)OCO4)CC2)n1,-17.3%
7,CCOC(=O)Cc1csc(NC(=O)CSc2nc(-c3ccccc3)c(C#N)c(=O)[nH]2)n1,34.6%
8,Nc1c(N=Nc2ccccc2F)c(=O)[nH]n1-c1ccccc1,29.5%
9,CC(=O)c1ccc(NC(=O)Nc2sc(NS(=O)(=O)c3ccccc3)nc2C)cc1,15.9%
10,Cn1ccnc1SCC(=O)Nc1ccc(Cl)cn1,-14.5%
11,Cc1ccc(NC(=O)CSc2nnnn2C2CCCC2)cc1S(=O)(=O)N1CCOCC1,-14.3%
12,COc1ccc(NC(=O)NNC(=O)COc2ccc3ccccc3c2)cc1OC,17.4%
13,COc1ccc(/C=C(/NC(=O)c2ccc(C)cc2)C(=O)NCC2CCCO2)cc1 (stereo not drawn),-24.6%
14,CCN=C1S/C(=C\c2ccc(-c3cccc(C(=O)O)c3)o2)C(=O)N1CC,61.4%
15,Cc1snc2sc(C(=O)c3ccc(F)cc3)c(N)c12,-1.2%
16,O=C(C1CCN(S(=O)(=O)c2ccc(Br)s2)CC1)N1CCN(C2CCCCC2)CC1,-30.9%
17,Cc1cc(NC(=O)C(C)SCC(=O)O)no1 (stereo not drawn),22.5%
18,COc1ccccc1CCNC(=O)COc1cccc2c1OC(C)(C)C2,-11.7%
19,O=C(O)C1C2CCC(C2)C1C(=O)Nc1cccc([N+](=O)[O-])c1 (stereo not drawn),18.3%
20,Cc1cc(OCCN2CCCCC2)nc2ccccc12.Cl,-43.6%
21,O=C(N/N=C/c1c(F)c(F)c(F)c(F)c1F)c1cc(-c2ccccc2)nc2ccccc12,6.92%
22,Cc1cccc(C(CC(=O)N2CCCC2)c2ccccc2)c1O (stereo not drawn),-19.4%
23,COc1cccc(NC(=O)C(C)(C)C)c1,-2.44%

row,Compound,"hERG current change (%, negative = inhibition) at 10uM"
1,O=C1CCCN1CC1CCCN(Cc2nc(COc3ccccc3)no2)C1 (stereo not drawn),28.6%
2,CN(C)CCCOC(=O)c1ccccc1,5.26%
3,COc1ccc(CCNC(=O)Cn2cc(C(F)(F)F)cc(Cl)c2=O)cc1OC,-0.415%
4,COC(=O)c1c(NC(=O)CC2Nc3cc(C)c(C)cc3NC2=O)sc(C)c1C (stereo not drawn),-17.2%
5,O=c1c2c3c(sc2ncn1/N=C/c1ccccc1)CCCC3,3.34%
6,COCc1cc(CN2CCN(CCc3ccccc3)C(CCO)C2)ccc1OC (stereo not drawn),-56.9%
7,CCOC(=O)/C(C#N)=C/c1c(N2CCN(c3ccc(OC)cc3)CC2)nc2c(C)cccn2c1=O,3.02%
8,O=[N+]([O-])c1ccccc1OCCCCN1CCCCC1,-32.2%
9,Cc1ccc(NC(=O)C(C)SCc2ccccc2)cc1 (stereo not drawn),-4.2%
10,CCOC(=O)c1cc(C(=O)Nc2ccc(C)c(F)c2)nn1C,3.51%
11,Cn1nnnc1SCC(=O)Nc1cccc([N+](=O)[O-])c1,2.65%
12,Cc1n[nH]c(=S)n1Cc1ccccc1,9.94%
13,CC(C)(C)c1ccc(OCC(O)CN(CCO)CC(O)Cn2ccc3ccccc32)cc1 (stereo not drawn),3.08%
14,CCOC(=O)C1=C(C)NC2=C(C1c1ccc([N+](=O)[O-])cc1)S(=O)(=O)c1ccccc12 (stereo not drawn),-31.5%
15,Cc1nc(SCC(=O)NCc2cccs2)nc(C)c1C,18%
16,COc1ccc(-c2cc(C(=O)N3CCN(S(=O)(=O)c4ccc(C)cc4)CC3)[nH]n2)cc1,0.242%
17,Nc1nonc1-c1nc2ccccc2n1CC(=O)N1CCN(c2ccc(F)cc2)CC1,-12.3%
18,COc1ccccc1-c1ccc(/C=C2/C=C(CC(C)C)OC2=O)o1,13.9%
19,NCCN=C1NS(=O)(=O)c2ccccc21,0.316%
20,COc1ccc(Cl)cc1NC(=S)NC(=O)c1ccco1,-31.5%
21,CC(C)(C)c1ccc(C(=O)NCCC(=O)Nc2cc(Cl)ccc2N2CCOCC2)cc1,-2.31%
